# Hit rate of the full screen: of about 350,000 compounds, about 31,000 (8.9%) were called active. Inconclusive results, whose numbers are uncertain, are shown with a selection of clear calls. The call rests on the fitted dose curve; in most records, active means well fitted inhibition curve with a large enough effect; inconclusive means small, poorly fitted or top-dose-only effect; inactive means no such curve, though single readings can be large or run the other way. Potencies beside an inconclusive call are fits to weak or partial responses and may not hold up.
# Target: Histone-lysine N-methyltransferase EHMT2 (Homo sapiens) (UniProt Q96KQ7)
# UniProt Q96KQ7, sequence (Q96KQ7 whole entry, looked up): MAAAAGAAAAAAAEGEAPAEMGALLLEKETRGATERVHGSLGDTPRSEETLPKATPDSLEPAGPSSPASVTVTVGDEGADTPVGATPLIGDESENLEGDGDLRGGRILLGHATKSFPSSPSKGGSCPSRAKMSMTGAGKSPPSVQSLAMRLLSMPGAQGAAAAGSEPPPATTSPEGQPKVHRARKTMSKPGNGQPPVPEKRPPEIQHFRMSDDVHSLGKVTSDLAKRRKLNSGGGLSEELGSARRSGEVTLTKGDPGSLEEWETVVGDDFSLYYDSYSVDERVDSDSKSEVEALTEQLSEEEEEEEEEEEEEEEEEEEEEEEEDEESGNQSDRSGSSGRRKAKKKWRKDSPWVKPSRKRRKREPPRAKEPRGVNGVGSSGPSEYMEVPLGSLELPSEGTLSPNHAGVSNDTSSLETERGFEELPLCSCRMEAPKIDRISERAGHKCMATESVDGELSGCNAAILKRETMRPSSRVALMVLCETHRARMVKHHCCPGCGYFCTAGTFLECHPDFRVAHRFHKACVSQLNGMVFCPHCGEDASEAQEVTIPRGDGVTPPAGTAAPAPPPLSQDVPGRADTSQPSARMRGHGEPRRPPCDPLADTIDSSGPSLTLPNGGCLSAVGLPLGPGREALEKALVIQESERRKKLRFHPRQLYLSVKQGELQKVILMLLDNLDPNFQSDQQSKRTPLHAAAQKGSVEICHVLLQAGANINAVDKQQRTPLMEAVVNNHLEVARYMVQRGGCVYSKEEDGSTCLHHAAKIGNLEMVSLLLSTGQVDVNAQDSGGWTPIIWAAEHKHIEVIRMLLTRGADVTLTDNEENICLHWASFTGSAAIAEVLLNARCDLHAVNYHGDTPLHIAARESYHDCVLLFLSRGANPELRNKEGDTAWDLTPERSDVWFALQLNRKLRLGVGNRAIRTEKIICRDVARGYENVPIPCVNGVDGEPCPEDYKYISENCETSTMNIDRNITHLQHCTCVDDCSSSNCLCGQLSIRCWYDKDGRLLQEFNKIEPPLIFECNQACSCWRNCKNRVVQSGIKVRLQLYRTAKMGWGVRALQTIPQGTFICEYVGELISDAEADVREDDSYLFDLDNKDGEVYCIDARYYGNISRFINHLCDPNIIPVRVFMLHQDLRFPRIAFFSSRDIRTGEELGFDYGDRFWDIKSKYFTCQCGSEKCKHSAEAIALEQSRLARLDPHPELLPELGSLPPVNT
# Assay: qHTS Assay for Inhibitors of Histone Lysine Methyltransferase G9a; further: nearly all actives have a fitted effect of over 75% in size
# Details: G9a H3K9 monomethylation, AlphaScreen, 2 h; activity, negative = inhibition: at 59 µM (top of the series) unless noted
# Procedure, shortened: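 Methyltransferase reactions run at room temperature for 2 h (20 nM enzyme, 500 nM biotin-H3K9 peptide, 20 uM SAM) after a 15 min compound preincubation; product detected by AlphaScreen beads and anti-H3K9me1 antibody.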
# On the % scale 0 is the no-effect control and ±100 the full control effect; potency means the concentration at half of the fitted maximal effect; tags describe the fitted curve by direction and shape.
SMILES,"activity, negative = inhibition",Potency
CCN(CC)S(=O)(=O)c1cc(-c2nnc(Nc3ccc(OC)c(C(N)=O)c3)c3ccccc23)ccc1C,inactive: -3.58%,
Cc1cccc2sc(NC(=O)c3cc(S(=O)(=O)N(C)C)ccc3N3CCCC3)nc12,inconclusive: -64.8% [inhibitor],
CNS(=O)(=O)c1cccc(C(=O)OCC(=O)Nc2ccc(-c3nc4ccc(C)cc4s3)cc2)c1,,"inconclusive: 50.1 µM [inhibitor, partial curve]"
Cc1ccc(Nc2c(-c3cc(Br)ccc3F)nc3cc(C)ccn23)cc1,,"inconclusive: 3.16 µM [inhibitor, partial curve, poor fit]"
CCN(CC)S(=O)(=O)c1ccc2[nH]cc(C(=O)NCCN3CCCCCC3)c(=O)c2c1,,"inconclusive: 7.08 µM [inhibitor, partial curve, poor fit]"
Cc1cc(C(=O)NNc2cc(Cl)ccc2Cl)no1,inactive: -22.3% [at 102 µM],
COc1ccc(OC)c2sc(NC(=O)c3cccc(N4C(=O)CCC4=O)c3)nc12,,"inconclusive: 22.4 µM [inhibitor, partial curve, poor fit]"
Cc1ccc(S(=O)(=O)Nc2ccccc2F)cc1C(=O)N1CCN(c2ccccc2O)CC1,inactive: 16.6% [at 12.7 µM],
Cc1ccc(S(=O)(=O)N(C)c2ccc(OCC(=O)NCC3(N(C)C)CCCCC3)cc2)cc1,,"inconclusive: 89.1 µM [inhibitor, partial curve, poor fit]"
Cc1[nH]c2ccccc2c1/C=N\NC(=O)CNc1ccc2c(c1)OCO2,,active: 10 µM
CC(=O)CSc1nnc(CN2C(=O)CSc3ccc(C(F)(F)F)cc32)n1C,,active: 44.7 µM
CN(CC(=O)Nc1ccc(Cl)c(C(F)(F)F)c1)C(=O)Cc1cccs1,inactive: 11.6% [at 12.7 µM],
CCn1cc(S(=O)(=O)CC(=O)Nc2ccc3c(c2)OCCO3)c2ccccc21,inconclusive: -88.8% [inhibitor],
CCOC(=O)c1c(C)c(C(=O)NCc2ccco2)c(C)n1CC,,"inconclusive: 79.4 µM [inhibitor, partial curve, poor fit]"
O=C(CSc1ncnc2sc3c(c12)CCCCC3)NCc1ccco1,,"inconclusive: 2.51 µM [inhibitor, partial curve, poor fit]"
Cc1ccc(CCNCc2c(C(=O)O)c(C)n(-c3ccccc3)c2C)cc1,,"inconclusive: 79.4 µM [inhibitor, single point]"
O=C(Nc1ncc(C(F)(F)F)cc1Cl)c1ccc(S(=O)(=O)N2CCOCC2)cc1,inactive: 0.508% [at 102 µM],
COc1cc(=O)[nH]c(SC(C)C(=O)Nc2nc3c(s2)CCCC3)n1 (stereo not given),inactive: -24.2% [at 102 µM],
COc1ccc(C(=O)N2CCN(Cc3ccccn3)CC2)cc1,,active: 10 µM
CCN(C(=O)COC(=O)c1ccc2[nH]c3c(c2c1)CCCC3)C1CCS(=O)(=O)C1 (stereo not given),,active: 50.1 µM
Cc1ccc(C)c(Nc2cc(C(=O)NC3CCCCC3)c3ccccc3n2)c1,inactive: -5.84%,
COC(=O)C(=C/C=C/c1ccco1)C(=O)OC,,active: 44.7 µM
COc1cccc(C(=O)SC2=NCCS2)c1,,"inconclusive: 56.2 µM [inhibitor, partial curve, poor fit]"
CCC(=O)N1CCc2cc(CNC(=O)C(CC)c3ccccc3)ccc21 (stereo not given),inactive: -1.75%,
Cc1ccccc1-n1c(=S)[nH]c2nc3c(cc2c1=O)CCCC3,inactive: 20.3% [at 102 µM],

SMILES,"activity, negative = inhibition",Potency
CCOC(=O)c1c(C)[nH]c(C)c1C(=O)COc1ncnc2ccccc12,,"inconclusive: 12.6 µM [inhibitor, partial curve, poor fit]"
COCCCn1c(=O)c2ccccc2n2c(=S)[nH]nc12,,active: 8.91 µM
Cc1ccc(C)c(NC(=S)NNC(=S)Nc2ccc(C(C)C)cc2)c1,,active: 31.6 µM
CC1C/C(=N/Nc2ccc([N+](=O)[O-])cc2[N+](=O)[O-])CC(C)(C)C1 (stereo not given),,active: 10 µM
Cc1ccc(C(=O)/C=C/c2ccc(Br)cc2)o1,inactive: 37.1% [at 0.501 µM],
CN(/N=C/c1ccc(N(C)C)cc1)C1=NS(=O)(=O)c2ccccc21,inactive: 14.4% [at 102 µM],
Cn1c(O)c(N=NC(N)=S)c2ccccc21,,"inconclusive: 2.82 µM [inhibitor, partial curve, poor fit]"
Cc1csc(N/N=C/c2ccccn2)n1,,"inconclusive: 89.1 µM [inhibitor, single point]"
CCc1cc2c(cc3c(=O)n(CC(=O)NCCc4ccc(OC)c(OC)c4)ncn32)s1,,"inconclusive: 22.4 µM [inhibitor, partial curve, poor fit]"
COc1ccc(C(c2c(C)[nH][nH]c2=O)c2c(C)[nH][nH]c2=O)cc1Br,,"inconclusive: 89.1 µM [inhibitor, single point]"
COc1ccc(C2NC(C(=O)O)CS2)cc1COCC(F)(F)F (stereo not given),,active: 50.1 µM
CCOC(=O)c1c(CN2CCN(C)CC2)oc2ccc(O)cc12,,active: 50.1 µM
COc1cccc(-n2cc(C(=O)NCc3ccccc3OC)c3ccccc3c2=O)c1,inactive: -1.19%,
Cc1ccccc1Cn1c(=O)n(CCc2ccccc2)c(=O)c2c(C)c(C)sc21,inactive: -1.08%,
COc1cccc(OCCSc2nc3ccccc3n2CC(=O)N2CCCCC2)c1,,"inconclusive: 35.5 µM [inhibitor, partial curve, poor fit]"
Fc1ccc(-c2n[nH]c(=S)n2CC2CCCO2)cc1 (stereo not given),,active: 2.82 µM
Cc1cc(C)cc(-n2c(SCC(=O)Nc3cccc(S(=O)(=O)NC4=NCCCCC4)c3)nc3ccccc3c2=O)c1,,"inconclusive: 89.1 µM [inhibitor, single point]"
COc1ccc(NC(=S)Nc2cnc3ccccc3c2)c(OC)c1,,"inconclusive: 39.8 µM [inhibitor, partial curve, poor fit]"
COC(=O)c1[nH]c2ccccc2c1NC(=O)CN1CCN(C/C=C/c2ccccc2)CC1,,"inconclusive: 89.1 µM [inhibitor, single point]"
O=C(NCCC1=CCCCC1)c1c(O)nc2ccccn2c1=O,,"inconclusive: 89.1 µM [inhibitor, single point]"
Cc1ccc(C(=O)Nc2nnc(C)s2)cc1,inactive: 7.16%,
CN(C)c1ccc(C2Nc3cccc4cccc(c34)N2)cc1,,active: 39.8 µM
O=C(c1ccccc1F)N1CCN(c2cccc(C(F)(F)F)c2)CC1,inactive: 3.15%,
O=C1c2ccccc2C(=O)C1c1ccc(O)cc1,inactive: -35.2% [at 102 µM],
CCn1c(SCCC(=O)O)nnc1-c1cccnc1,,active: 44.7 µM

SMILES,"activity, negative = inhibition",Potency
CN1CCN(c2ccc(CNS(=O)(=O)Cc3ccc(Cl)cc3)cc2)CC1,,"inconclusive: 50.1 µM [inhibitor, partial curve, poor fit]"
Cc1sc(NC(=O)c2ccco2)c(C(c2ccncc2)N2CCOCC2)c1C (stereo not given),inconclusive: -52.4% [inhibitor],
O=C(c1ccccc1)c1nc[nH]c1C(=O)Nc1ccccn1,,"inconclusive: 3.16 µM [inhibitor, partial curve, poor fit]"
CCC(C)NC(=O)C1CCN(S(=O)(=O)c2ccc3nc4c(c(C(=O)O)c3c2)CCCCC4)CC1 (stereo not given),,"inconclusive: 79.4 µM [inhibitor, single point]"
CCOC(=O)/C(C#N)=C/c1cn(CCC(=O)O)nc1-c1cccc(Cl)c1,,"inconclusive: 100 µM [inhibitor, single point]"
COc1cccc(C=O)c1OCCN1C(=O)c2ccccc2C1=O,,"inconclusive: 25.1 µM [inhibitor, single point]"
Cc1ccc(/C=C/C(=O)c2nc3ccccc3[nH]2)cc1,inactive: 16.2% [at 102 µM],
Nc1ccccc1SCCS(=O)(=O)c1ccc(Cl)cc1,inactive: 10.7% [at 102 µM],
Cc1ccc(NC(=O)COC(=O)Cn2c(C)csc2=O)c([N+](=O)[O-])c1,,"inconclusive: 70.8 µM [inhibitor, partial curve, poor fit]"
O=C(Cc1ccc(S(=O)(=O)N2CCCC2)s1)N1CCN(c2ccccc2)CC1,,"inconclusive: 44.7 µM [inhibitor, partial curve, poor fit]"
Cc1nc(-c2ccc(Cl)cc2)sc1CCNC(=O)c1ccc(C(F)(F)F)cc1,inactive: 9.82%,
CN(CC(CC(=O)O)c1ccccc1)S(=O)(=O)c1ccc(Br)cc1 (stereo not given),inactive: -10.5% [at 102 µM],
C=CCc1cc(Cl)ccc1OCCn1ccnc1,,active: 7.08 µM
OC(CNCCC1C=Nc2ccccc21)Cn1c2ccc(Cl)cc2c2cc(Cl)ccc21 (stereo not given),,"inconclusive: 25.1 µM [inhibitor, single point]"
O=C(/C=C/c1ccccc1Cl)c1ccccc(=O)c1O,,active: 31.6 µM
Oc1ccc(Br)cc1/C=N/n1c(COc2ccccc2)n[nH]c1=S,,active: 28.2 µM
O=C(CCc1nnc(Cc2ccc3c(c2)OCO3)o1)N(CC1CCC1)CC1CCCO1 (stereo not given),,"inconclusive: 39.8 µM [inhibitor, single point]"
C/C(CC(=O)Nc1ccc(N(C)C)cc1)=N\NC(=O)c1ccc([N+](=O)[O-])cc1Cl,,active: 44.7 µM
CC(=O)Oc1c(-c2ccc(Br)o2)oc2ccccc2c1=O,,"inconclusive: 89.1 µM [inhibitor, single point]"
O=C(O)CN1C2=NCCCN2c2ccccc21,,"inconclusive: 70.8 µM [inhibitor, partial curve, poor fit]"
Cc1nn(C(C)C(=O)N2CCOCC2)c(C)c1[N+](=O)[O-] (stereo not given),inactive: 2.2%,
CC(C)(C)c1ccc(OCCn2ccccc2=O)cc1,inactive: 5.08% [at 102 µM],
O=C(CN1CCOCC1)Nc1cc(Cl)ccc1Cl,inactive: 53.9%,
CCOC(=O)CCP(=O)(O)C(O)c1ccccc1 (stereo not given),inactive: 18%,
CCc1ccc(NC(=S)N2CCN(c3cccc(OC)c3)CC2)cc1,,"inconclusive: 0.355 µM [inhibitor, partial curve, poor fit]"

# Source: PubChem BioAssay AID504332 (National Center for Advancing Translational Sciences (NCATS), 2011)
